Over roughly 33,000 sequences, “E-score (-0.5 to 0.5)” has its median near -0.035; the highest 2% begin near 0.35. This is one part of the list.
These sequences were tested against T1, Pdr3 (UniProt P33200) (assay: PBM E-score (8-mer binding enrichment) (E-score (-0.5 to 0.5)); higher = stronger / more preferred TF binding; most listed sequences are background and not binding sites). Details: protein concentration: 200 nM; construct: GST-full length.
T1 sequence: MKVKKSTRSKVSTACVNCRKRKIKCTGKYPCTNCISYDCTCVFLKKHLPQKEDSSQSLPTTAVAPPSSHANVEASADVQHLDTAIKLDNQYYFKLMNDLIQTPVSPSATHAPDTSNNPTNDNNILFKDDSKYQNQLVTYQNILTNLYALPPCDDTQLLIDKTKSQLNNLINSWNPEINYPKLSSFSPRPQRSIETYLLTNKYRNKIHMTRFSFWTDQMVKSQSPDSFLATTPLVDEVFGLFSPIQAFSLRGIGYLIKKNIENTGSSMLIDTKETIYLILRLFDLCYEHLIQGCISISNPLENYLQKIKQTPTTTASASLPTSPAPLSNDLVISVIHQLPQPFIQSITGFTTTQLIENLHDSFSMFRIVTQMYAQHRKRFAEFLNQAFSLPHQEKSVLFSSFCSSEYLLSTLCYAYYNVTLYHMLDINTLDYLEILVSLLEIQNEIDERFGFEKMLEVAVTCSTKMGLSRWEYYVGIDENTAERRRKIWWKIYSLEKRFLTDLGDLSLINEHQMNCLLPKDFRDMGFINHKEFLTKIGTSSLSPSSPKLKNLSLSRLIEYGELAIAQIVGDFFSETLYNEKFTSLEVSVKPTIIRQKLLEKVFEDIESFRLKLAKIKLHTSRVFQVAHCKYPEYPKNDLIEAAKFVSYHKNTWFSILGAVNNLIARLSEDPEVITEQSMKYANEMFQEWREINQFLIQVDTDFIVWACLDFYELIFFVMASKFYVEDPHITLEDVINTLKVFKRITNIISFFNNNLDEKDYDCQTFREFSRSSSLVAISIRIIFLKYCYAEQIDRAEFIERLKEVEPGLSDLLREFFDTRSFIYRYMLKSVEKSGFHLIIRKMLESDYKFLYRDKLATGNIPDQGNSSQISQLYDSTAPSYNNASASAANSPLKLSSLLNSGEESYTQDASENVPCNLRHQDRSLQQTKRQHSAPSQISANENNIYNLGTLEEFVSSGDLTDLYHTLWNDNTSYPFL
In short: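 Universal all-10-mer Agilent arrays, double-stranded by primer extension on fresh or once-stripped slides, were probed with about 100-200 nM GST-tagged yeast transcription factors made by PURExpress. Fluorescent anti-GST detected bound protein, and masliner normalised the scans. E-scores from the Universal PBM Analysis Suite were given to each ungapped eight-base word pooled with its reverse complement.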

Sequence	PBM E-score
CTCGGTGC	0.0604
CGCACTGC	0.0531
AAATAGGG	0.0666
GGCACTTA	-0.0858
CAGTTAGG	-0.225
AGTCTTAG	-0.224
CACAGCTG	-0.203
CTCACGGC	-0.0134
ATTGTACC	0.028
GGTACCGA	-0.0402
TACGCCGA	-0.0463
GACGAATC	-0.0176
AGTAACAG	-0.0124
CGCTCATA	-0.0487
AGATACCC	0.0996
AAGCCCGG	0.379
GAACGATA	-0.0239
ACATGAGC	-0.107
CAGACCCC	-0.146
ACCTCTGG	-0.182
AAACCCTA	-0.144
CTCGAAAA	-0.218
CAAAAACG	0.152
CGGGGGCA	-0.00755
CAACCAAG	-0.107

Sequence	PBM E-score
CACCGCCA	0.0193
GCGTCGCC	0.106
CAATTGCC	-0.0825
ATGCCCAC	-0.0212
CGGTTCTA	0.0361
CTCCAACC	-0.00089
TAGAGAGA	-0.165
CCCCAGGG	-0.147
ACAAATCA	-0.0555
AGAGATGG	0.0558
GTGATAAC	-0.027
GGATCACA	0.0931
GATAAATA	0.115
GGCTAAAC	-0.135
TGGTTGAA	-0.0988
CACCGAAG	-0.00668
ATGATCCC	0.19
AACGTCAC	-0.0419
GGGCGCAA	-0.0365
GGATTATA	0.195
AGTTCGAG	0.0163
AAATTCAC	-0.0187
CAACGACA	0.0336
CCTTAGTA	-0.0781
AACTCCGC	0.301

Sequence	PBM E-score
CAGACCTA	-0.194
CGCAAGGC	0.172
ATCCTACA	-0.178
CGGAGCAC	0.297
ATCATGCG	-0.0659
ACGGGGAG	0.113
CGTAACAG	0.00621
ATTCAAAG	-0.126
CGCGGGTC	0.331
CGGGGGAG	0.0505
TGCACTAA	-0.0147
AGCACATC	0.0574
AGATTCGG	0.161
GACGGATA	0.251
ATCGCTTA	-0.254
TCCGATAA	0.289
AGTGGATA	0.117
GAGTATGA	0.166
ACTATTGA	-0.0249
CTGAATAA	-0.112
TAATTATA	0.217
GGCGAAGA	0.103
AGACGGGG	0.101
GTCGTTAA	-0.102
CCCAAAAC	-0.00477

Sequence	PBM E-score
AGCCCCTC	-0.011
CATTATGA	-0.161
CACTAGTG	-0.0719
CGCACTAC	0.0185
CCAGCTTC	0.0568
CCCCTACG	-0.307
CACGGTAG	-0.115
ACCACTTG	-0.0862
CAAGGATA	-0.0589
ATCGCACG	-0.207
GAGCGATC	-0.00897
TCGGCAAA	-0.0471
AAGCGCGA	0.0804
GACATAGC	-0.0234
CTTCCATC	0.0277
GATCTTGC	0.18
CGACCAGA	-0.0251
ATCAGTTG	-0.0997
ATAACCCC	0.0666
CAGTACTA	-0.139
CCGTGTAC	0.199
ATCGGGGC	-0.0418
ACCAAGGA	0.0326
AATAGACT	-0.247
ACTCTCCC	0.159

Sequence	PBM E-score
AATTCCTC	0.0037
CCTATATC	-0.0312
GTCGTGGA	-0.0456
ACATGAGT	-0.248
ACTTGAGC	-0.272
GATTTTAC	-0.0975
GGAACGAC	0.0731
GACGAAGC	-0.0363
CATCCCCC	0.0287
CGTCCGAC	0.109
ATATAGTA	0.0137
GCCGCGAA	0.112
CTAATAGA	-0.0107
ACAAGACC	-0.101
AAGTAGAA	-0.153
ACCAGGAG	-0.124
CGAAATAG	0.0496
CTCGAAGC	-0.144
TCTGCGCA	0.00827
CTCATAAG	-0.173
AGAGGTAC	-0.0729
AGCTATAG	-0.332
CGACTACA	-0.168
AGCAAAGA	-0.0461
GGGGGTAC	-0.0958

Sequence	PBM E-score
GAAATTTC	0.084
AGGACCGC	0.191
GAGTACTA	0.0457
GCAAGCGA	-0.035
CGACAACC	0.023
AACCAAGA	-0.0287
AAGGGATA	-0.206
CAGCTCGC	0.0477
AGTTGAAT	-0.0179
AAAGAGCT	-0.133
TCCACCAA	-0.0674
AATTTCTC	0.135
ATGGACTG	-0.163
CTGAAAGC	-0.0151
AGTGGCAA	-0.049
ATAAGTCG	0.123
AACCCTCC	-0.0905
GGGTAGGA	0.123
CTAAAGGA	-0.0754
CCGAACGG	0.32
CTCCACAA	-0.22
GCCCAAAA	-0.0889
ATTTTTTG	0.0165
CGTGCGCC	0.239
ATGTGCGA	-0.0762

Sequence	PBM E-score
GCGGATAC	0.311
ATTGGTCC	0.169
CACCAAGA	-0.107
ATGGCGGA	0.279
AACGTTGG	-0.0419
AGGAGACT	-0.263
CACGCTCA	0.0533
ACGTCGTG	-0.0757
CCCCACAG	-0.347
GATCTACC	0.00285
GTTCCTCA	0.0277
AGCAATAG	-0.0578
AACATACA	-0.177
CGGCTTAA	0.314
ACCGTGCG	0.0528
GTAGGCAA	-0.291
AGAGGCTA	-0.169
CAGTCATG	-0.0684
CAATACTA	-0.161
CTTAGAAG	-0.272
AACGACTT	-0.331
GACTCCTA	-0.211

— the supplement of paper PMC3334620
